These results are taken from the supplement of paper PMC8948288.

The subject of one data set is H4. In words: cell viability relative to siNT1 (ATP content); H4 human neuroglioma and GL261 mouse glioma; higher = less toxic. As to conditions: siRNA concentration 10 nM; 96 h; human.
The subject of the next data set is GL261. The data set is described as above. The note with it: siRNA concentration 25 nM; 96 h; mouse.

The sequences are guide strands of siRNAs; only the seed at positions 2 to 7 varies.
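Note: cells reverse transfected with siRNA duplexes via lipid reagent, ATP read by luminescence, triplicate wells, values scaled to mean viability with non-targeting control siNT1.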

For the sequence UGACUCGACAUGUAAACCA, the cell viability (as a rule, a read-out of living cells in per cent, often relative to untreated cells) with H4 came out at 92.9%; in the data set with GL261 it was 16.6%.

Regarding UGACUCUACAUGUAAACCA, the cell viability in the data set with H4 was 53.3%; with GL261, 7.49%.

Take UGACUGAACAUGUAAACCA: the cell viability stood at 61.8% in the data set on H4 and 32.2% with GL261.

Take UGACUGCACAUGUAAACCA: the results for the cell viability in the data set with H4 and with GL261 were 7.36% and 18%, respectively.

Consider UGACUGGACAUGUAAACCA, for which the cell viability in the data set on H4 stood at 28.3%; with GL261, 16.7%.

Turning to UGACUGUACAUGUAAACCA, the cell viability came out at 23.9% in the data set with H4 and 16.4% in the data set with GL261.

UGACUUAACAUGUAAACCA: the cell viability with H4 was 78.8%; in the data set on GL261 it was 44.8%.

On to UGACUUCACAUGUAAACCA, for which the cell viability with H4 was 48.5%; with GL261, 20.1%.

For the sequence UGACUUGACAUGUAAACCA, the cell viability in the data set with H4 worked out at 72.6%; in the data set on GL261, 27.7%.

In the case of UGACUUUACAUGUAAACCA, the cell viability stood at 63.2% with H4 and 32.2% in the data set on GL261.

With UGAGAAAACAUGUAAACCA, the cell viability stood at 100% with H4 and 49.6% in the data set on GL261.

In the case of UGAGAACACAUGUAAACCA, the cell viability with H4 is 72%; in the data set on GL261, 28.6%.

UGAGAAGACAUGUAAACCA: the cell viability with H4 came out at 86.7%; in the data set on GL261 it was 33%.

With UGAGAAUACAUGUAAACCA, the cell viability was found to be 65.4% in the data set with H4 and 22.7% in the data set on GL261.

As for UGAGACAACAUGUAAACCA, the cell viability came to 95.7% with H4 and 27.4% in the data set with GL261.

In the case of UGAGACCACAUGUAAACCA, the results for the cell viability with H4 and with GL261 were 46.3% and 16.2%, respectively.

With UGAGACGACAUGUAAACCA, the cell viability turned out to be 85.9% in the data set on H4 and 33.6% in the data set with GL261.

For the sequence UGAGACUACAUGUAAACCA, the cell viability with H4 worked out at 21.1%; in the data set with GL261, 24.9%.

On to UGAGAGAACAUGUAAACCA, for which the cell viability with H4 amounted to 67.4%; in the data set on GL261, 49.3%.

Take UGAGAGCACAUGUAAACCA: the values for the cell viability with H4 and in the data set on GL261 were 23% and 20.5%, respectively.

On to UGAGAGGACAUGUAAACCA, for which the cell viability was 29.1% with H4 and 12.5% in the data set on GL261.

For the sequence UGAGAGUACAUGUAAACCA, the cell viability worked out at 40.3% in the data set with H4 and 41.8% with GL261.

As for UGAGAUAACAUGUAAACCA, the results for the cell viability in the data set with H4 and in the data set with GL261 were 95.1% and 45.5%, respectively.

For UGAGAUCACAUGUAAACCA, the cell viability in the data set on H4 stood at 69%; in the data set with GL261 it was 19.8%.

For the sequence UGAGAUGACAUGUAAACCA, the cell viability was 80.9% in the data set with H4 and 31.6% in the data set on GL261.

On to UGAGAUUACAUGUAAACCA, for which the values for the cell viability with H4 and with GL261 were 97.7% and 25.6%, respectively.

For UGAGCAAACAUGUAAACCA, the cell viability in the data set on H4 was 70.6%; with GL261, 64.6%.

As to UGAGCACACAUGUAAACCA, the cell viability turned out to be 55.3% with H4 and 9.14% in the data set on GL261.

On to UGAGCAGACAUGUAAACCA, for which the cell viability in the data set with H4 was found to be 57.4%; with GL261, 25.2%.

UGAGCAUACAUGUAAACCA: the cell viability in the data set on H4 was 62.6%; with GL261, 24%.

In the case of UGAGCCAACAUGUAAACCA, the cell viability in the data set with H4 amounted to 49.7%; in the data set with GL261, 35.9%.

As to UGAGCCCACAUGUAAACCA, the cell viability in the data set with H4 worked out at 4.29%; in the data set with GL261, 6.54%.

As for UGAGCCGACAUGUAAACCA, the cell viability in the data set with H4 worked out at 45.2%; in the data set on GL261 it was 19.7%.

UGAGCCUACAUGUAAACCA: the cell viability in the data set with H4 stood at 36.7%; in the data set with GL261, 13.7%.

UGAGCGAACAUGUAAACCA: the cell viability was 77.9% with H4 and 34.3% in the data set on GL261.

UGAGCGCACAUGUAAACCA: the cell viability with H4 turned out to be 88.6%; with GL261, 22.4%.

Take UGAGCGGACAUGUAAACCA: the values for the cell viability in the data set with H4 and in the data set on GL261 were 42.4% and 13%, respectively.

On to UGAGCGUACAUGUAAACCA, for which the results for the cell viability with H4 and with GL261 were 56.2% and 33.1%, respectively.

As for UGAGCUAACAUGUAAACCA, the cell viability in the data set on H4 was determined as 67.7%; with GL261, 41.8%.

In the case of UGAGCUCACAUGUAAACCA, the figures for the cell viability with H4 and in the data set on GL261 were 46.4% and 10.5%, respectively.

Turning to UGAGCUGACAUGUAAACCA, the cell viability in the data set on H4 came out at 42.4%; in the data set on GL261, 13.8%.

Consider UGAGCUUACAUGUAAACCA, for which the cell viability in the data set with H4 turned out to be 43.1%; in the data set on GL261 it was 11.2%.

With UGAGGAAACAUGUAAACCA, the cell viability in the data set with H4 was 57.9%; with GL261, 21.1%.

Regarding UGAGGACACAUGUAAACCA, the cell viability worked out at 14.5% in the data set on H4 and 21.2% with GL261.

As to UGAGGAGACAUGUAAACCA, the cell viability was determined as 55.7% in the data set with H4 and 13.8% in the data set with GL261.
